# Laboratory results: PubChem BioAssay AID624417 (National Center for Advancing Translational Sciences (NCATS), 2012)
# About 6,400 (1.6%) of roughly 410,000 compounds were called active. Inconclusive results, whose numbers are uncertain, are shown with a selection of clear calls. Calls come from the whole dose curve; as a rule, active = well fitted inhibition curve with a large enough effect; inconclusive = small, poorly fitted or top-dose-only effect; inactive = no such curve, though single readings can be large or run the other way. No potency is given beside an inconclusive call; the fits are too rough.
# Target: Glucagon-like peptide 1 receptor (Homo sapiens) (UniProt P43220)
# Chain of UniProt P43220 (P43220 whole entry, looked up): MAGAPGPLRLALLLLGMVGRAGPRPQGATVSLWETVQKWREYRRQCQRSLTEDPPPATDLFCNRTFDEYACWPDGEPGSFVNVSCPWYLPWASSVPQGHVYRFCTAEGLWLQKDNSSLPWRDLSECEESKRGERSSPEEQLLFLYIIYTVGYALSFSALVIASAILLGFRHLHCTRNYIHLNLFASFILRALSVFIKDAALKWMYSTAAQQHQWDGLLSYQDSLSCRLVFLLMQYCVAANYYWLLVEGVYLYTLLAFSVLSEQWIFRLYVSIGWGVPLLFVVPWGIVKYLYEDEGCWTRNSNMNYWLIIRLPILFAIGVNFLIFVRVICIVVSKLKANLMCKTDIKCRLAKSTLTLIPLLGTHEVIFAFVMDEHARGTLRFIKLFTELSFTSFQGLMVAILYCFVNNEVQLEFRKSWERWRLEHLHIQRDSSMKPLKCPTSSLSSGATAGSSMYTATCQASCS
# Experiment: qHTS of GLP-1 Receptor Inverse Agonists (Inhibition Mode); note: nearly all actives have a fitted effect of over 55% in size
# Details: HEK293 GLP-1R CRE-luciferase, luminescence, 24 h, GLP-1R form is constitutively active; series mostly up to 38.3 µM
# Method in brief: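 Seeding at 200 cells/uL, 12 h culture, 24 hr compound treatment, then luciferase reagent and a luminescence read; cells are HEK293 stably expressing a constitutively active GLP-1R plus cAMP-responsive luciferase.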
# Potency is the fitted concentration of half-maximal effect; tags give direction and shape of the fitted curve.
row,Compound,Potency
1,CCOc1ccc(C(=O)Nc2ccc3nc(SCC(=O)N(C)c4ccccc4)sc3c2)cc1,"inconclusive [inhibitor, partial curve, poor fit]"
2,Nc1cc2c(cc1Cl)-c1ccc(Cl)cc1C2,"inconclusive [inhibitor, single point]"
3,O=C(CSc1nnc(CSc2nc3ccccc3s2)o1)NC1CCCCC1,"inconclusive [inhibitor, full curve]"
4,COc1ccc(NC(=S)N/N=C/c2cccn2Cc2ccc(F)cc2Cl)cc1,"inconclusive [inhibitor, full curve, poor fit]"
5,CC(C)c1ccc(NC(=S)NCCc2c[nH]c3ccccc23)cc1,"inconclusive [inhibitor, single point]"
6,O=C1N[C@H](Cc2ccccc2)COC(=O)[C@@H](Cc2ccc(F)cc2)C/C=C\C[C@H]1CC(=O)N(CCO)Cc1ccccc1,"inconclusive [inhibitor, single point]"
7,CC(=O)C(Sc1nc(NC(C)(C)C)nc(N(C)C)n1)C(C)=O,"inconclusive [inhibitor, partial curve, poor fit]"
8,COC(=O)c1ccc2c(=O)n(CCCCCC(=O)NC(C)C)c(=O)[nH]c2c1,"inconclusive [inhibitor, single point]"
9,Cc1ccc(C2CC2/C(=N/O)c2ccc(F)cc2)cc1 (stereo not drawn),active: 10 µM
10,Cc1ccccc1OCCCSc1nc2ccccc2[nH]1,"inconclusive [inhibitor, single point]"
11,CN(C)CCNc1ncnc2c1sc1nc(-c3ccccc3)c3c(c12)CCCC3,"inconclusive [inhibitor, partial curve, poor fit]"
12,C[C@@H]1CCC(=O)N(C[C@@H](C)CSc2ccc(Br)cc2)CC1,"inconclusive [inhibitor, partial curve, poor fit]"
13,COc1cc(CNCCc2ccccc2)cc(Cl)c1OCc1ccccc1,"inconclusive [inhibitor, partial curve, poor fit]"
14,Cc1cc(C)cc(NC(=O)CCS(=O)(=O)c2ccc3c(c2)oc(=O)n3C)c1,inactive
15,O=C(Nc1nnc(SCc2ccccc2)s1)C1=COCCO1,inactive
16,CC1CCCN(S(=O)(=O)c2ccc(C(=O)NC(C)c3ccccc3)cc2)C1 (stereo not drawn),"inconclusive [inhibitor, partial curve, poor fit]"
17,CN(C)N1C(N)=C(C#N)C(c2cccs2)C2=C1CC(C)(C)CC2=O (stereo not drawn),inactive
18,COc1ccc(N2CCN(Cc3cc4c(cc3O)CCC4)CC2)cc1,inactive
